Source: patent publication US20230287061A1, “NEW ANTIMICROBIAL PEPTIDES” (priority 2020, published 2023)

Key:
Conditions in all cases: tested range 1 to 512 μg/ml
[1] = system: B. thuringiensis
[2] = system: Listeria monocytogenes
[3] = system: E. coli
[4] = system: C. sporogenes
[5] = system: C. tyrobutyricum
[6] = system: C. difficile
[7] = system: Salmonella thyphymurium

Row | Sequence | MIC [1] [µg/mL] | MIC [2] [µg/mL] | MIC [3] [µg/mL] | MIC [4] [µg/mL] | MIC [5] [µg/mL] | MIC [6] [µg/mL] | MIC [7] [µg/mL]
1 | ALLKVLFSWFRKHNSRRKNLPAKN [Seq ID no2] | 256 | 32 | 256 | 4 | 1 | 1.5 | 
2 | AYRRVPCRKRGGIRFTINGH [Seq ID no4] |  | 512 | 128 | 512 | 16 |  | >512
3 | GWFNRGARCGRMIKIKARNG [Seq ID no3] | 128 | 512 |  | 256 | 64 |  | 

Ends that are not written are not given here.
